The other results are listed elsewhere or left out.
B1: PhoQ; a variant is named by its letters at X, in order, P23837 (parent)
chain: MKKLLRLFFPLSLRVRFLLATAAVVLVLSLAYGMVALIGYSVSFDKTTFRLLRGESNLFYTLAKWENNKLHVELPENIDKQSPTMTLIYDENGQLLWAQRDVPWLMKMIQPDWLKSNGFHEIEADVNDTSLLLSGDHSIQQQLQEVREDDDDAEMTHSVAVNVYPATSRMPKLTIVVVDTIPVELKSSYMVWSWFIYVLSANLLLVIPLLWVAAWWSLRPIEALAKEVRELEEHNRELLNPATTRELTSLVRNLNRLLKSERERYDKYRTTLTDLTHSLKTPLXXLQXXLRSLRSEKMSVSDAEPVMLEQISRISQQIGYYLHRASMRGGTLLSRELHPVAPLLDNLTSALNKVYQRKGVNISLDISPEISFVGEQNDFVEVMGNVLDNACKYCLEFVEISARQTDEHLYIVVEDDGPGIPLSKREVIFDRGQRVDTLRPGQGVGLAVAREITEQYEGKIVAGESMLGGARMEVIFGRQHSAPKDE

Variants of: B1
Assay: enrichment ratio after two sorts for PhoP signalling (ratio (wild type AVST 3.29)); higher = more functional
Conditions: with PhoP (E. coli)

Variant | enrichment ratio
FKRK | ≤ 0.25
FMIK | ≤ 0.25
NYAQ | ≤ 0.25
TAHE | ≤ 0.25
PKNT | ≤ 0.25
QAGY | 6.46
SAYP | ≤ 0.25
KSVD | ≤ 0.25
YGYM | ≤ 0.25
GPTW | ≤ 0.25
GNRV | ≤ 0.25
QTVP | ≤ 0.25
TNII | ≤ 0.25
GMYE | ≤ 0.25
GSDM | ≤ 0.25
NCAH | ≤ 0.25
RHMH | ≤ 0.25
ETYT | ≤ 0.25
GQRG | ≤ 0.25
PKRQ | ≤ 0.25
YLYW | ≤ 0.25
IQAA | ≤ 0.25
ANFN | ≤ 0.25
DISL | ≤ 0.25

Variant | enrichment ratio
MPTC | ≤ 0.25
WGTH | ≤ 0.25
MGPM | ≤ 0.25
RVRP | ≤ 0.25
INWT | ≤ 0.25
ADGF | ≤ 0.25
SPEW | ≤ 0.25
KAGF | ≤ 0.25
SKIY | 4.42
SHFN | ≤ 0.25
YRHY | ≤ 0.25
DIWF | ≤ 0.25
SPHP | ≤ 0.25
KWAI | ≤ 0.25
NPWM | ≤ 0.25
MSYN | 3.17
QHCW | ≤ 0.25
LFSN | ≤ 0.25
HSWE | ≤ 0.25
KDLR | ≤ 0.25
HMCH | ≤ 0.25
AGAH | 11.2
DCMP | ≤ 0.25
AVKR | ≤ 0.25

Variant | enrichment ratio
WPFR | ≤ 0.25
KMAY | ≤ 0.25
QDCY | ≤ 0.25
RRRD | ≤ 0.25
GYCH | ≤ 0.25
VLIC | ≤ 0.25
YEPD | ≤ 0.25
SEGA | 12
SVNK | ≤ 0.25
MACI | 8.52
IDFT | ≤ 0.25
PWVH | ≤ 0.25
ECAS | ≤ 0.25
VDHG | ≤ 0.25
GVTR | ≤ 0.25
HNIY | ≤ 0.25
QTCA | ≤ 0.25
VRDE | ≤ 0.25
RTDR | ≤ 0.25
RLKL | ≤ 0.25
KTMY | ≤ 0.25
DMLC | ≤ 0.25
SPEI | ≤ 0.25
MPNW | ≤ 0.25

Variant | enrichment ratio
EHDR | ≤ 0.25
LTVA | ≤ 0.25
ENWQ | ≤ 0.25
YGHS | ≤ 0.25
DLRP | ≤ 0.25
YRFS | ≤ 0.25
TTMA | 13.4
SFYR | ≤ 0.25
ASKQ | ≤ 0.25
LIYG | ≤ 0.25
TGCA | 19.8
RDHQ | ≤ 0.25
HHRP | ≤ 0.25
TFKV | ≤ 0.25
PHMD | ≤ 0.25
HDPS | ≤ 0.25
YWMH | ≤ 0.25
PMHN | ≤ 0.25
FHRY | ≤ 0.25
YNLG | 5.88
KHDF | ≤ 0.25
LEMP | ≤ 0.25
HFPK | ≤ 0.25
NYVP | ≤ 0.25

Variant | enrichment ratio
VEFA | ≤ 0.25
RFNI | ≤ 0.25
GMLF | 7.41
VRIY | ≤ 0.25
DYVL | ≤ 0.25
FINV | ≤ 0.25
EKYH | ≤ 0.25
IQFV | ≤ 0.25
HHVC | ≤ 0.25
NYVT | ≤ 0.25
VMMY | ≤ 0.25
AGKE | ≤ 0.25
YCRM | ≤ 0.25
WNAL | ≤ 0.25
SCRQ | ≤ 0.25
IEVY | ≤ 0.25
GMIQ | ≤ 0.25
YHYW | ≤ 0.25
SYRY | ≤ 0.25
DKFS | ≤ 0.25
KISA | ≤ 0.25
QICG | ≤ 0.25
AWYP | ≤ 0.25
VKKC | ≤ 0.25

Variant | enrichment ratio
TEHV | 10.3
HCWD | ≤ 0.25
ATPI | 8.1
SLWR | ≤ 0.25
ATIK | 10.2
VWVQ | ≤ 0.25
WQKY | ≤ 0.25
HWPN | ≤ 0.25
HKLM | ≤ 0.25
RNSK | ≤ 0.25
LIPC | ≤ 0.25
RLCE | ≤ 0.25
FQEN | ≤ 0.25
TTQI | 5.82
NTGK | ≤ 0.25
MSAK | ≤ 0.25
YMFK | ≤ 0.25
LREK | ≤ 0.25
ITLT | ≤ 0.25
RWLL | ≤ 0.25
NSFQ | ≤ 0.25
RFPF | ≤ 0.25
HVIA | ≤ 0.25
DKKS | ≤ 0.25

Variant | enrichment ratio
QSWP | ≤ 0.25
ASYC | ≤ 0.25
SARR | ≤ 0.25
TMTH | 9.92
RWPS | ≤ 0.25
HTGG | ≤ 0.25
AAVY | ≤ 0.25
NMQD | ≤ 0.25
AEMS | 31
WDNN | ≤ 0.25
FTYN | ≤ 0.25
ERQN | ≤ 0.25
PKEH | ≤ 0.25
PGQD | ≤ 0.25
ADTW | ≤ 0.25
HDTR | ≤ 0.25
SMCH | 5.44
TAHV | 10.4
MVPP | ≤ 0.25
AKIF | 4.26
WFWY | ≤ 0.25
EDVH | ≤ 0.25
NFPL | ≤ 0.25
YMPI | ≤ 0.25

Variant | enrichment ratio
LWYH | ≤ 0.25
YRPP | ≤ 0.25
PFWD | 3.08
PWGF | ≤ 0.25
TFFH | ≤ 0.25
PQQG | ≤ 0.25
RDEA | ≤ 0.25
NKTI | ≤ 0.25
NNHW | ≤ 0.25
LTYE | ≤ 0.25
EPPI | ≤ 0.25
DGGV | ≤ 0.25
MVFL | 2.81
GLPG | ≤ 0.25
LMSL | ≤ 0.25
CFSM | 18.5
LVEI | ≤ 0.25
WCCS | ≤ 0.25
YPLD | ≤ 0.25
HYGF | ≤ 0.25
PVCF | ≤ 0.25
TRKA | ≤ 0.25
SIKP | ≤ 0.25
ILIP | 0.762

Variant | enrichment ratio
YMID | ≤ 0.25
HPTN | ≤ 0.25
CFLL | ≤ 0.25
DQGK | ≤ 0.25
EHYC | ≤ 0.25
AVEN | ≤ 0.25
THHV | ≤ 0.25
WVPW | ≤ 0.25
MKFR | ≤ 0.25
LDYT | ≤ 0.25
AGNP | ≤ 0.25
APYA | ≤ 0.25
RMHT | ≤ 0.25
YYWD | ≤ 0.25
TPWP | ≤ 0.25
ANRS | ≤ 0.25
PLCL | ≤ 0.25
PTNK | ≤ 0.25
VNYV | ≤ 0.25
FFRD | ≤ 0.25
NPMV | ≤ 0.25
IDWK | ≤ 0.25
PMFQ | ≤ 0.25
VVGC | ≤ 0.25

Variant | enrichment ratio
CICF | 0.285
FEIF | ≤ 0.25
SMLY | 4
WGHW | ≤ 0.25
TAMW | ≤ 0.25
HYYR | ≤ 0.25
FHPQ | ≤ 0.25
RHMT | ≤ 0.25
KCHE | ≤ 0.25
SHFG | ≤ 0.25
EFMC | ≤ 0.25
VYKG | ≤ 0.25
WAIF | ≤ 0.25
YDNE | ≤ 0.25
PPKL | ≤ 0.25
PPIY | ≤ 0.25
WIRN | ≤ 0.25
ENQL | ≤ 0.25
WRKM | ≤ 0.25
AFME | ≤ 0.25
FGHI | ≤ 0.25
YLWY | ≤ 0.25
SWQS | ≤ 0.25
FVTH | ≤ 0.25

Variant | enrichment ratio
MGMP | ≤ 0.25
VVAF | ≤ 0.25
ASMQ | 29.9
QKDR | ≤ 0.25
KCHI | ≤ 0.25
GPSQ | ≤ 0.25
DHPW | ≤ 0.25
KWVF | ≤ 0.25
NMIN | ≤ 0.25
KYAT | ≤ 0.25
RDAS | ≤ 0.25
LTAH | ≤ 0.25
RLEK | ≤ 0.25
TCSS | 15
TTDA | ≤ 0.25
PWAY | ≤ 0.25
LPPP | ≤ 0.25
NDDT | ≤ 0.25
WFRV | ≤ 0.25
QYPW | ≤ 0.25
PDFT | ≤ 0.25
TYYC | ≤ 0.25
SRQV | ≤ 0.25
DTSE | ≤ 0.25

Variant | enrichment ratio
GPMQ | ≤ 0.25
DCER | ≤ 0.25
GHGG | ≤ 0.25
VSNF | ≤ 0.25
QMTS | ≤ 0.25
LVPM | ≤ 0.25
QFVA | ≤ 0.25
DAMD | ≤ 0.25
EHRN | ≤ 0.25
VQDQ | ≤ 0.25
QLDG | ≤ 0.25
DKRH | ≤ 0.25
WYEH | ≤ 0.25
NSES | ≤ 0.25
AEVE | 7.98
EMKA | ≤ 0.25
RFAV | ≤ 0.25
GTPR | ≤ 0.25
FECF | ≤ 0.25
MWNT | ≤ 0.25
KDDM | ≤ 0.25
VYYI | ≤ 0.25
SILD | ≤ 0.25
PFWR | ≤ 0.25

Variant | enrichment ratio
WSQW | ≤ 0.25
NQYC | ≤ 0.25
HEGF | ≤ 0.25
AARQ | ≤ 0.25
PQTH | ≤ 0.25
EPQP | ≤ 0.25
WTWT | ≤ 0.25
KQHT | ≤ 0.25
WECL | ≤ 0.25
QLDD | ≤ 0.25
MDYY | ≤ 0.25
GYDQ | ≤ 0.25
QFFK | ≤ 0.25
SASE | 9.07
GMFF | ≤ 0.25
EWQP | ≤ 0.25
EIWN | ≤ 0.25
NFWG | ≤ 0.25

— a collection of fitness landscapes (doi:10.1126/science.1257360)
